Drawing on a collection of fitness landscapes (doi:10.1126/science.1257360), this text covers enrichment ratio for 153 variants.

The list shows a part of the results.

B1: PhoQ; a variant is named by its letters at X, in order, P23837 (parent)
chain: MKKLLRLFFPLSLRVRFLLATAAVVLVLSLAYGMVALIGYSVSFDKTTFRLLRGESNLFYTLAKWENNKLHVELPENIDKQSPTMTLIYDENGQLLWAQRDVPWLMKMIQPDWLKSNGFHEIEADVNDTSLLLSGDHSIQQQLQEVREDDDDAEMTHSVAVNVYPATSRMPKLTIVVVDTIPVELKSSYMVWSWFIYVLSANLLLVIPLLWVAAWWSLRPIEALAKEVRELEEHNRELLNPATTRELTSLVRNLNRLLKSERERYDKYRTTLTDLTHSLKTPLXXLQXXLRSLRSEKMSVSDAEPVMLEQISRISQQIGYYLHRASMRGGTLLSRELHPVAPLLDNLTSALNKVYQRKGVNISLDISPEISFVGEQNDFVEVMGNVLDNACKYCLEFVEISARQTDEHLYIVVEDDGPGIPLSKREVIFDRGQRVDTLRPGQGVGLAVAREITEQYEGKIVAGESMLGGARMEVIFGRQHSAPKDE

In the assay the parent is B1. Kind of assay: enrichment ratio after two sorts for PhoP signalling (ratio (wild type AVST 3.29)); higher = more functional. To be noted: with PhoP (E. coli).
SQQL: the enrichment ratio turned out to be 2.28.
For TARC, the enrichment ratio was no more than 0.25.
On to VGLQ, for which the enrichment ratio is 3.99.
Consider RNGP, for which the enrichment ratio was no more than 0.25.
VRGH: the enrichment ratio is no more than 0.25.
Turning to FMEF, the enrichment ratio was no more than 0.25.
Regarding DCKS, the enrichment ratio was no more than 0.25.
As to WELE, the enrichment ratio was no more than 0.25.
Turning to KCSK, the enrichment ratio is no more than 0.25.
For the variant SKYF, the enrichment ratio was no more than 0.25.
With MSQI, the enrichment ratio is no more than 0.25.
The figure for LLAN is no more than 0.25; for MDPW it is no more than 0.25; for HWKY it is no more than 0.25.
As for LAVI, the enrichment ratio is no more than 0.25.
For the variant AKGP, the enrichment ratio was no more than 0.25.
Then VDND, with no more than 0.25; and DHGH, with no more than 0.25; and KGTE, with no more than 0.25.
DFQV: the enrichment ratio is no more than 0.25.
Consider YQPH, for which the enrichment ratio is no more than 0.25.
Consider TKAH, for which the enrichment ratio was 10.5.
With NFNL, the enrichment ratio is no more than 0.25.
Regarding MPCI, the enrichment ratio is no more than 0.25.
Then RDMK, with no more than 0.25; and ICYY, with no more than 0.25; and TPGK, with no more than 0.25.
For RLVV, the enrichment ratio was no more than 0.25.
Consider ACHP, for which the enrichment ratio is no more than 0.25.
As to HFHM, the enrichment ratio was no more than 0.25.
The figure for PEEH is no more than 0.25; for ILPR it is no more than 0.25.
For the variant QEGT, the enrichment ratio came out at 24.3.
Then QDGS, with no more than 0.25; and PRKR, with no more than 0.25; and FCTQ, with no more than 0.25.
Consider GTMN, for which the enrichment ratio is no more than 0.25.
As for NSCM, the enrichment ratio was no more than 0.25.
Take ELIL: the enrichment ratio was no more than 0.25.
Turning to FHQD, the enrichment ratio is no more than 0.25.
Take AGMK: the enrichment ratio is 9.73.
On to HWEY, for which the enrichment ratio was no more than 0.25.
Take TRSN: the enrichment ratio is no more than 0.25.
For the variant HLIP, the enrichment ratio was no more than 0.25.
Then QIAC, with no more than 0.25; and AQSD, with no more than 0.25; and WGNG, with no more than 0.25.
Turning to IEVF, the enrichment ratio was no more than 0.25.
Regarding SECR, the enrichment ratio was found to be 10.9.
Then KMKR, with no more than 0.25; and QQPD, with no more than 0.25; and VFNL, with no more than 0.25.
With YQDM, the enrichment ratio was no more than 0.25.
In the case of NCVT, the enrichment ratio was no more than 0.25.
For TSEV, the enrichment ratio is 8.15.
For HNAH, the enrichment ratio was determined as 2.97.
As to YDSD, the enrichment ratio is no more than 0.25.
For IKKH, the enrichment ratio was no more than 0.25.
With LVLC, the enrichment ratio was no more than 0.25.
Take YTYA: the enrichment ratio was no more than 0.25.
Consider VMEH, for which the enrichment ratio was no more than 0.25.
Turning to FKNW, the enrichment ratio is no more than 0.25.
For TKEC, the enrichment ratio was no more than 0.25.
Then HPGS, with no more than 0.25.
Regarding LEPE, the enrichment ratio was no more than 0.25.
Then NAFI, with no more than 0.25; and LFDM, with no more than 0.25; and LHSP, with no more than 0.25.
Then WFFP, with no more than 0.25.
For the variant LASM, the enrichment ratio is no more than 0.25.
As for QQKR, the enrichment ratio was no more than 0.25.
Regarding LIFW, the enrichment ratio was no more than 0.25.
The figure for KTQA is no more than 0.25; for EIPC it is no more than 0.25; for DLRG it is no more than 0.25.
Then AFKQ, with no more than 0.25; and FVFF, with no more than 0.25.
With RQGF, the enrichment ratio was no more than 0.25.
Then KTRG, with no more than 0.25; and HWFL, with no more than 0.25.
Take YRKS: the enrichment ratio is no more than 0.25.
The figure for AYGV is no more than 0.25; for TGYP it is no more than 0.25.
As for ILSL, the enrichment ratio is no more than 0.25.
Take FFMI: the enrichment ratio is no more than 0.25.
Consider WGRH, for which the enrichment ratio is no more than 0.25.
In the case of VGVY, the enrichment ratio is no more than 0.25.
Take LIIQ: the enrichment ratio is no more than 0.25.
As for MAWL, the enrichment ratio worked out at 12.
As for DGAY, the enrichment ratio is no more than 0.25.
As to WWIN, the enrichment ratio was no more than 0.25.
Consider DYQW, for which the enrichment ratio was no more than 0.25.
Then GTMT, with no more than 0.25; and PIHM, with no more than 0.25; and KQTD, with no more than 0.25.
With PNIN, the enrichment ratio is no more than 0.25.
Take VFAQ: the enrichment ratio was no more than 0.25.
Take VCEW: the enrichment ratio is no more than 0.25.
Then WYRC, with no more than 0.25; and QCAR, with no more than 0.25.
The figure for HYKK is no more than 0.25.
Regarding GIRA, the enrichment ratio was no more than 0.25.
With HNKS, the enrichment ratio is no more than 0.25.
On to SIRH, for which the enrichment ratio is 0.562.
The figure for DTAE is no more than 0.25; for WYNF it is no more than 0.25.
Consider YTKY, for which the enrichment ratio was no more than 0.25.
For MSCG, the enrichment ratio was no more than 0.25.
The figure for VFKY is no more than 0.25; for EGVF it is no more than 0.25; for WWHP it is no more than 0.25.
For KDNI, the enrichment ratio is no more than 0.25.
On to HAGG, for which the enrichment ratio was no more than 0.25.
For the variant DSGN, the enrichment ratio was no more than 0.25.
Regarding LEAN, the enrichment ratio stood at 1.88.
The figure for NLLL is no more than 0.25; for YPLE it is no more than 0.25.
Consider CAFI, for which the enrichment ratio was no more than 0.25.
Then EDNI, with no more than 0.25; and EQSN, with no more than 0.25; and PFPY, with no more than 0.25.
On to GINN, for which the enrichment ratio is no more than 0.25.
For the variant ILKS, the enrichment ratio was no more than 0.25.
With WDDC, the enrichment ratio was no more than 0.25.
DNYT: the enrichment ratio was no more than 0.25.
Turning to PQDL, the enrichment ratio is no more than 0.25.
For the variant DQTR, the enrichment ratio was no more than 0.25.
Then WAWM, with no more than 0.25; and NECP, with no more than 0.25; and FGTI, with 0.765.
As to ETLD, the enrichment ratio was no more than 0.25.
Consider ARSD, for which the enrichment ratio was no more than 0.25.
Then SAPK, with no more than 0.25; and HMSL, with no more than 0.25; and SIMM, with 1.49.
For WKRW, the enrichment ratio is no more than 0.25.
Then PYWH, with no more than 0.25.
Turning to KIHT, the enrichment ratio was no more than 0.25.
Turning to LSAL, the enrichment ratio was no more than 0.25.
For the variant VAIM, the enrichment ratio was no more than 0.25.
Regarding SFCH, the enrichment ratio is 0.703.
YMLK: the enrichment ratio was no more than 0.25.
In the case of HWQW, the enrichment ratio was no more than 0.25.
Consider AIEI, for which the enrichment ratio is no more than 0.25.
Regarding EYTD, the enrichment ratio was no more than 0.25.
Take NCLS: the enrichment ratio was no more than 0.25.
As for IPIN, the enrichment ratio was no more than 0.25.
Then SQPI, with no more than 0.25.
With MIQW, the enrichment ratio was no more than 0.25.
Regarding RIWQ, the enrichment ratio is no more than 0.25.
Regarding DYLY, the enrichment ratio is no more than 0.25.
Take VSHL: the enrichment ratio was no more than 0.25.
As for HKYN, the enrichment ratio was no more than 0.25.
